Source: PMC4336329 (PLoS ONE, 2015)
The whole screen tested about 310,000 compounds, of which about 2,200 (0.71%) showed an effect of 50% or more. Effects have a minus sign here. This is one part of the list.

molecular target: human ether-à-go-go-related gene (hERG) potassium channel (human, UniProt Q12809); test: primary screen, population patch clamp on CHO cells stably expressing hERG
Sequence (Q12809 whole entry, looked up): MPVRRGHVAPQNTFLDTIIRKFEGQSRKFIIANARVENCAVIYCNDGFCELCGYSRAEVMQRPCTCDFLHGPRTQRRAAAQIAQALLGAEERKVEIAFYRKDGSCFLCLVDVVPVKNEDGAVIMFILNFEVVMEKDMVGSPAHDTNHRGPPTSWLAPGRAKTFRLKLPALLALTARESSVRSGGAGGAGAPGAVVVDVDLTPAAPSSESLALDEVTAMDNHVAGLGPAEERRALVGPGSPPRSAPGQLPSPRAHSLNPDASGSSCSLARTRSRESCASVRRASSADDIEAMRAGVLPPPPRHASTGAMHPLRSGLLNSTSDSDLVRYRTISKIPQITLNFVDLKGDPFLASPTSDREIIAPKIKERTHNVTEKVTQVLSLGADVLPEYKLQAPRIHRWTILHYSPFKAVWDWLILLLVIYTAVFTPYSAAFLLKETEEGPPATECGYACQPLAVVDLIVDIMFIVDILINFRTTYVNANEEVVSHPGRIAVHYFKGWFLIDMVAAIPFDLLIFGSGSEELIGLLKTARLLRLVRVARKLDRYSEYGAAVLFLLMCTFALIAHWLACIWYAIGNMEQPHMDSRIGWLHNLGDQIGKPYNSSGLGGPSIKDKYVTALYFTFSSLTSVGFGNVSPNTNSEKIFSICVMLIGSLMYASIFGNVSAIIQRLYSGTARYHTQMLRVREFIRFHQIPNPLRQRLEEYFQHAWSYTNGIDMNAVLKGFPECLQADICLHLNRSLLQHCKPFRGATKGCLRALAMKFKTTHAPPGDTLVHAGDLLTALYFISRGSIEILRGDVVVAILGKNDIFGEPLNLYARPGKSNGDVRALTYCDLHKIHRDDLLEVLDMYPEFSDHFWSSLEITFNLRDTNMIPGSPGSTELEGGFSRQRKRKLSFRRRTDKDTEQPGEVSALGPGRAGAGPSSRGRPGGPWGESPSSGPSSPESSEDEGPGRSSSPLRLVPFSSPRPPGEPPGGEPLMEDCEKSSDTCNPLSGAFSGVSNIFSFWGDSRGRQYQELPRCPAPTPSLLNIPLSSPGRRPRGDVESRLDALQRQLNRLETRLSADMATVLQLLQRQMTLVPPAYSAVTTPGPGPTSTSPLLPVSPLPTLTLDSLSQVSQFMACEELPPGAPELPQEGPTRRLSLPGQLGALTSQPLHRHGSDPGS

| Structure (SMILES) | hERG current change (%, negative = inhibition) at 1uM |
| --- | --- |
| COc1ccc2[nH]c(=O)c(CN(Cc3cccs3)C(=S)Nc3ccccc3)cc2c1 | 13.5% |
| COCCn1c(SCC(=O)Nc2ccccc2C(F)(F)F)nc2ccccc2c1=O | 7.76% |
| CN(C)S(=O)(=O)c1ccc(N2CCCC2)c(C(=O)NC2CCCCC2)c1 | -4.83% |
| CCOC(=O)C1CCCN(C(=O)Cc2ccc(OC)c(OC)c2)C1 (stereo not drawn) | 16.5% |
| CCOC(=O)C1CCN(Cc2ccc(F)cc2)CC1 | -0.788% |
| CCc1c(C)nc2[nH]nc(-c3ccccc3)n2c1=O | 16.3% |
| CC(C)[C@@]1(c2ccc(Cl)cc2)ON(c2ccccc2C(F)(F)F)C1=O | -0.157% |
| Cc1c(N)c(=O)n(-c2ccccc2)n1C | 17.2% |
| Cc1nnc2c(NC3CCCC3)nc3ccccc3n12 | 6.69% |
| CCCCCC(=O)N1CCN(CCN=CC2=C(O)CC(c3ccc(OC)c(OC)c3)CC2=O)CC1 (stereo not drawn) | -56.5% |
| O=C(c1ccncc1)c1ccc(N2CCN(C3CC(=O)N(Cc4cccs4)C3=O)CC2)cc1 (stereo not drawn) | -8.32% |
| Cc1ccc(N=Nc2ccc3ccccc3c2O)cc1 | 9.14% |
| O=C(CSc1ccsc1[N+](=O)[O-])NC1CCCC1 | 10.6% |
| O=C(CSc1ccc([N+](=O)[O-])cn1)Nc1nccs1 | 5.78% |
| O=C(C1CCCN(S(=O)(=O)c2cccnc2)C1)N1CCN(c2ccccn2)CC1 (stereo not drawn) | 6.53% |
| COc1ccc(C(CNC(=O)c2cc3ccccc3o2)N2CCCCC2)cc1 (stereo not drawn) | -9.02% |
| CCCc1nc(SCC(=O)c2ccc(F)cc2)c2ccccc2n1 | 17.8% |
| Nn1c(Cc2ccccc2)nc2cc(Cl)ccc2c1=O | 15.1% |
| N#Cc1nc(-c2ccccc2F)oc1N1CCCCC1 | 22.6% |
| CCN(CC)CCC#CC(O)(c1ccccc1)c1ccccc1 | -4.15% |
| O=C(Cc1ccccc1Cl)N1CCN(c2ccccn2)CC1 | 4.35% |
| CC(C)(C)NC(=O)C(c1ccncc1)N(C(=O)c1csnn1)c1ccccc1 (stereo not drawn) | 3.06% |

| Structure (SMILES) | hERG current change (%, negative = inhibition) at 1uM |
| --- | --- |
| COc1ccc(NC(=S)NCC2CCCO2)c(OC)c1 (stereo not drawn) | 16.6% |
| COc1cc(OC)cc(C(=O)N[C@H](C(=O)Nc2nnc(C3CC3)s2)C(C)C)c1 | 10.2% |
| NC(=O)c1nsc(C(=O)N(Cc2ccco2)C(C(=O)NCC2CCCO2)c2ccc(O)cc2)c1N (stereo not drawn) | 11.6% |
| COc1ccc(S(=O)(=O)N2N=C(C)Oc3ccccc3C2=O)cc1 | 5.97% |
| O=C(C1=C(O)C(=O)N(CCN2CCOCC2)C1c1cccc([N+](=O)[O-])c1)c1cccs1 (stereo not drawn) | 9.7% |
| COC(=O)c1ccc(Sc2nnnn2-c2ccccc2)c([N+](=O)[O-])c1 | 6.33% |
| COc1ccc(C)cc1NC(=O)COC(=O)c1ccc(OCc2ccc(Cl)cc2Cl)c(OC)c1 | 13.4% |
| CN(C)S(=O)(=O)c1ccc(C(=O)Nc2nc(-c3cccs3)cs2)cc1 | 11.4% |
| CN(C)CCN1C(=O)C(=O)/C(=C(/O)c2ccc(S(=O)(=O)N3CCOCC3)cc2)C1c1ccccc1 (stereo not drawn) | 9.21% |
| COc1cc(/C=C2\SC(=S)N(NC(=O)c3ccccc3OC)C2=O)ccc1O | 13% |
| Cn1c(=O)c(Nc2ccc(O)cc2)c2c3c(cccc31)C(=O)c1ccccc1-2 | 7.76% |
| CN(C)S(=O)(=O)c1ccc(N2CCCC2)c(C(=O)NNC(=O)c2ccc(F)cc2)c1 | 14.3% |
| O=C(CN1C(=O)C2C3C=CC(C3)C2C1=O)NCCc1ccccc1Cl (stereo not drawn) | 11.9% |
| COC(=O)c1nn(-c2cccc(Cl)c2)cc(OC)c1=O | 18.7% |
| Cc1nc(N2CCOCC2)c2c(C)c(C(=O)Nc3ccc(F)cc3F)sc2n1 | 11.2% |
| CCN(CC1CCCO1)C(=O)c1cc(COc2ccccc2SC)on1 (stereo not drawn) | -58.9% |
| CC(=O)O.COc1cc2c(C#N)c(N3CCCC3)nc(N)c2c(N)n1 | 8.26% |
| CCOc1ccccc1CNS(=O)(=O)c1cc(-c2cc(C)no2)ccc1OC | 7.98% |
| COc1ccc(N2CCN(C(=O)c3cccc(NC4=NC5CS(=O)(=O)CC5S4)c3)CC2)cc1 (stereo not drawn) | 17.9% |
| O=C(N/N=C/c1ccc(OC(=O)c2ccccc2)c([N+](=O)[O-])c1)c1ccc(O)cc1 | 10.9% |
| Cc1ccc(-n2c(=S)[nH]c3sc4c(c3c2=O)CCC4)cc1 | 16.6% |
| CCCCn1c(N)c(N(CCOC)C(=O)c2ccc(-c3ccc(C(C)=O)cc3)o2)c(=O)[nH]c1=O | 6.17% |

| Structure (SMILES) | hERG current change (%, negative = inhibition) at 1uM |
| --- | --- |
| O=C(COc1ccccc1Cl)N1CCCC(N2CCN(c3ccc(F)cc3)CC2)C1 (stereo not drawn) | -19.5% |
| Cc1ccc(NC(=O)COc2cccnc2[N+](=O)[O-])cc1S(=O)(=O)N1CCOCC1 | 9.39% |
| CCc1nc2ccccc2n1CC(C)C(=O)O.Cl (stereo not drawn) | 12.7% |
| COc1ccc(CC(=O)OCC(=O)Nc2ccc3[nH]c(=O)[nH]c3c2)cc1 | 10.9% |
| CC1CCN(C(=O)c2ccc3c(c2)NC(=O)/C(=C/c2ccccc2)S3)CC1 | 14.6% |
| Cc1ccccc1/C=C1\Sc2ccc(C(=O)N3CCN(c4ccccn4)CC3)cc2N(C)C1=O | 9.39% |
| C=CCN(C(=O)C1=NN(C2CCS(=O)(=O)C2)C(=O)CC1)c1nc(-c2ccc([N+](=O)[O-])cc2)cs1 (stereo not drawn) | -6.17% |
| Cc1cc(C)cc(NC(=S)N2CCN(CCO)CC2)c1 | 12.4% |
| Cc1cc(C)nc(NC(=O)Cc2ccc(Cl)cc2)c1 | 15.1% |
| CC(C)(C)C1CCC2(CC1)C(C#N)=C(SCC(=O)NC1CCCCC1)NC(=O)C2C#N (stereo not drawn) | 7.68% |
| COc1ccc(/C=N/NC(=S)NCc2ccccc2)cc1OC | 9.83% |
| Cc1ccc(CNC(=O)CS(=O)(=O)CC(=O)O)cc1 | 17.8% |
| CC(=O)Nc1cc(C(=O)N2CCCC2)ccc1S(=O)(=O)c1ccc(Cl)cc1 | 6.72% |
| CCCS(=O)(=O)N1CCN(C(=O)COc2ccc(OC)cc2)CC1.O=C(O)C(=O)O | 11.7% |
| COc1ccc2oc(=N)c(C(=O)NCc3ccccc3)cc2c1 | 9.73% |
| CC(=O)Nc1ccc(NC(=O)CSc2ccc3nnc(CCNS(=O)(=O)c4ccc(C)cc4)n3n2)cc1 | 7.69% |
| Cc1cc(C)c(OCCCNC2CCCC2)c(Br)c1.O=C(O)C(=O)O | 8.9% |
| Cc1cc(-c2ccc(C)c(S(=O)(=O)NCCN3CCC(C)CC3)c2)on1 | 5.76% |
| COc1ccc(C=O)cc1O | 5.93% |
| NC(=S)N=Nc1c(O)[nH]c2ccc(F)cc12 | 11.4% |
| O=C(NNC(=O)c1oc2ccccc2c1-n1cccc1)c1ccco1 | 10.3% |
| COc1ccccc1NC(=S)NCc1cccs1 | 11% |

| Structure (SMILES) | hERG current change (%, negative = inhibition) at 1uM |
| --- | --- |
| CCN(CC)CCSc1nnc(Nc2ccccc2)n1-c1ccccc1 | -43.4% |
| COc1cccc(C(=O)/C=C/Nc2ccc(S(=O)(=O)Nc3nc(C)cc(C)n3)cc2)c1 | 5.42% |
| S=C1SCN(CCN2CCOCC2)CN1Cc1ccccc1 | 12.5% |
| CCCc1nc(N2CCN(S(=O)(=O)c3ccc(Cl)cc3)CC2)c2c(C)c(C)sc2n1 | 9.56% |
| Cc1ccc(OCc2ccoc2C(=O)O)cc1C | 6.17% |
| CCOc1ccc(NC(=O)c2ccc(N3CC4CC(C3)c3cccc(=O)n3C4)c(N)c2)cc1 (stereo not drawn) | -1.99% |
| CCC(CC)NC(=O)c1cc([N+](=O)[O-])ccc1N1CCOCC1 | 15.6% |
| Cc1ccc(C2=NN(CCC(=O)N3CCC4(CC3)OCCO4)C(=O)CC2)cc1 | -27.5% |
| CC(=O)Nc1ccc(S(=O)(=O)NCc2ccc3[nH]c(C)cc3c2)cc1 | 17.8% |
| COc1cccc(NC(=O)CN(C)C(=O)c2cc(-c3cccc(Br)c3)nc3ccccc23)c1 | 12.3% |
| COc1cccc(C2Nc3ccccc3C(=O)N2Cc2ccccc2)c1 (stereo not drawn) | 9.32% |
| O=C(Nc1ccc(C(=O)N2CCCC2)cc1)c1ccccc1F | -3.03% |
| O=C1CCC([N+](=O)[O-])C(c2ccccc2Cl)N1 (stereo not drawn) | 9.07% |
| CC(C)c1ccc(NC(=O)CCCC(=O)NCCc2ccccc2)cc1 | 7.18% |
| Cc1cc(C)cc(NS(=O)(=O)c2ccc3c(c2)C(C)(C)C(=O)N3C)c1 | 5.31% |
| C=CCOc1ccccc1CN1CCC(n2nccc2NC(=O)C2CCOC2)CC1 (stereo not drawn) | 4.77% |
| COC(=O)c1cccc(-c2noc(-c3ccccc3F)n2)c1 | 16.2% |
| CC(=O)Nc1nnc(/C=C/c2cccc([N+](=O)[O-])c2)s1 | 13.4% |
| CCOC(=O)c1c(-c2ccc(C)s2)csc1N | 12.3% |
| O=C(Nc1nc2ccccc2c(=O)s1)c1ccc(F)cc1Cl | 15.8% |
| CCOC(=O)c1c(CN2CCN(CC#N)CC2)n(C)c2cc(Br)c(OC)cc12 | 16.8% |
